Hit rate of the full screen: of about 420,000 compounds, about 64,000 (15%) were called active. The shares of active, inactive and inconclusive entries below differ from those in the screen. Calls come from the whole dose curve; as a rule, active = well fitted inhibition curve with a large enough effect; inconclusive = small, poorly fitted or top-dose-only effect; inactive = flat fitted curve, though single readings scatter. No potency is given beside an inconclusive call; the fits are too rough.
Test: qHTS for Inhibitors of human tyrosyl-DNA phosphodiesterase 1 (TDP1): qHTS in cells in absence of CPT; note: nearly all actives have a fitted effect of over 55% in size
Details: DT40 Tdp1-/- hTDP1 cells, no CPT, ATP luminescence, 48 h; activity change, negative = growth inhibition: at 46.2 µM (top of the series) unless noted
Summary of the method: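 Chicken DT40 Tdp1-/- cells complemented with human TDP1, screened without camptothecin (DMSO vehicle only), 400 cells/well. Compounds pin-transferred, cells incubated at 37 °C for at least 48 hr. Growth read as ATP-dependent luminescence (CellTiter-Glo, 30 min at RT).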
% is set by controls: 0 for no effect and ±100 for the full control effect; potency is the fitted concentration of half-maximal effect; tags give direction and shape of the fitted curve.

Row | Compound | Potency | activity change, negative = growth inhibition
1 | Cc1ccc(-c2nc3c(Cl)cc(C(F)(F)F)cn3c2Cc2ccccc2)cc1 | inconclusive [inhibitor, single point] | 
2 | COc1cc2c(cc1OC)CN(C(=O)CSc1ccc(F)cc1)CC2 | inconclusive [inhibitor, single point] | 
3 | Cc1cccc(C(O)c2ncc(-c3ccc(C(F)(F)F)cc3)[nH]2)c1C (configuration not stated) | inconclusive [inhibitor, single point] | 
4 | Nn1cnc2scc(-c3ccco3)c2c1=O | inconclusive [inhibitor, partial curve] | 
5 | Cc1ccc(C(=O)OCC(=O)c2ccccc2)cc1 | inactive | 
6 | O=S(=O)(NCc1ccccc1)c1cccc2nsnc12 | inactive | 
7 | Oc1ccc(C=NNc2ccccn2)c(O)c1 | active: 2.91 µM | 
8 | CCOc1ccccc1OCCC(=O)Nc1ccc(F)c(Cl)c1 | inconclusive [inhibitor, full curve, poor fit] | 
9 | O=C(O)CCCn1c(=O)c2cccn2c2ccc(F)cc21 | active: 7.31 µM | 
10 | COc1cccc(Nc2ncc3nc(C)c(=O)n(C)c3n2)c1 | inactive | 
11 | COc1ccc(NC(=O)CN2C(=O)c3cccc4cccc2c34)c(OC)c1 | inconclusive [inhibitor, partial curve] | 
12 | CC(C)OC(=O)c1cccc(NC(=O)Cn2nnc3sc4c(c3c2=O)CCCC4)c1 | inconclusive [inhibitor, partial curve] | 
13 | C#CCN(C(=O)Nc1ccccc1)c1ccccc1 | inconclusive [inhibitor, partial curve] | 
14 | CC(C)Cc1ccc(-c2ccc3nccn3c2)cc1 | active: 18.4 µM | 
15 | Cc1cccc(Nc2nnc(-c3ccc(C)c(S(=O)(=O)N4CCCCC4)c3)c3ccccc23)c1 | inconclusive [inhibitor, full curve] | 
16 | CN(C)S(=O)(=O)n1cc(/C=C(\NC(=O)c2ccccc2)C(=O)N2CCCCC2)c2ccccc21 | active: 18.4 µM | 
17 | CCN(C(=O)c1cnc(NC(C)C)cc1C(F)(F)F)c1ccc(Cl)cc1 | inconclusive [inhibitor, partial curve, poor fit] | 
18 | CN(c1ccc(OCc2ccc([N+](=O)[O-])cc2)cc1)S(=O)(=O)c1ccccc1 | inconclusive [inhibitor, single point] | 
19 | O=[N+]([O-])c1ccc(Cl)cc1P(=O)(O)c1cc(Cl)ccc1[N+](=O)[O-] | inactive | 
20 | CC1(c2ccc3ccccc3c2)NC(=O)N(CC(=O)N2CCN(Cc3ccc(C#N)cc3)CC2)C1=O (configuration not stated) | active: 2.06 µM | 
21 | COc1cc(C(CC(=O)Nc2ccc(C)cn2)N2Cc3ccccc3C2=O)cc(OC)c1OC (configuration not stated) | inactive | 
22 | O=C(O)Cc1sc(Nc2ccccc2)nc1-c1ccc(Cl)cc1 | inactive | 
23 | COc1ccc(C)cc1NC(=O)NNC(=O)c1cc2ccccc2cc1O | inconclusive [inhibitor, single point] | 
24 | O=C(CN1C(=O)S/C(=C\C=C\c2ccccc2)C1=O)N1CCOCC1 | inconclusive [inhibitor, single point] | 

Row | Compound | Potency | activity change, negative = growth inhibition
25 | COc1ccc(-c2c(C(=O)c3ccccc3)[nH]c(N)c2C(N)=O)cc1OC | inactive | 
26 | OCC1(Cc2ccccc2C(F)(F)F)CCN(Cc2cccc3cnccc23)CC1 | inconclusive [inhibitor, single point] | 
27 | Cc1c(C#N)c(O)[nH]c(=O)c1N=Nc1ccc(S(N)(=O)=O)cc1 | inactive | 
28 | O=C(Nc1ccncc1)Nc1ccc(Br)cc1Cl | inconclusive [inhibitor, single point] | 
29 | Cc1nc(C(=O)Nc2ccc(Cl)cc2)sc1C1(C)CC(c2ccccc2)=NO1 (configuration not stated) | inconclusive [inhibitor, single point] | 
30 | Cc1cc(C(=O)CSc2nnc(-c3cccnc3)n2-c2ccccc2F)c(C)n1C | inconclusive [inhibitor, partial curve, poor fit] | 
31 | CC(C)N1CC(O)=C(c2nc3ccccc3[nH]2)C1=N | inconclusive [inhibitor, single point] | 
32 | CC(=O)NCCNc1nc2cc(-c3ccc(C(=O)N4CCN(C)CC4)cc3)sc2c(=O)n1C | inactive | 
33 | O=C(c1cc(-c2cccnc2)nc2ccccc12)N1CCN(S(=O)(=O)c2cccs2)CC1 | active: 23.1 µM | 
34 | Cc1ccc(S(=O)(=O)N(CC(=O)Nc2cccnc2)c2cccc([N+](=O)[O-])c2)cc1 | active: 11.6 µM | 
35 | COC(=O)Cc1ccc(NC(C)=O)cc1 | inactive | 
36 | Cc1ccc(-c2nnc(Nc3ccc(C(N)=O)cc3)c3ccccc23)cc1S(=O)(=O)NCC1CCCO1 (configuration not stated) | inconclusive [inhibitor, single point] | 
37 | CC(C)c1ccc(NC2CCCN(C(=O)CN3C(=O)CSC3=O)C2)cc1 (configuration not stated) | inactive | 
38 | CC1CCc2nc(NC(=O)Nc3ccc4c(c3)OCO4)sc2C1 (configuration not stated) | inconclusive [inhibitor, single point] | 
39 | CCOC(=O)C1(CCCc2ccccc2)CCN(S(C)(=O)=O)CC1 | inconclusive [inhibitor, single point] | 
40 | CCc1nnc(NS(=O)(=O)c2ccc(NC(=O)c3ccccc3OC)cc2)s1 | inactive | 
41 | COc1ccc(S(=O)(=O)Nc2cccc3c2O[C@@H](CN(C)CC2CC2)[C@@H](C)CN([C@@H](C)CO)C3=O)cc1 | inactive | 
42 | O=C1CSC(c2cccnc2)N1Cc1ccc(Cl)c(Cl)c1 (configuration not stated) | inactive | 
43 | Cc1cc2nc(-c3ccc[nH]c3=O)n(Cc3ccccc3F)c2cc1C | inconclusive [inhibitor, single point] | 
44 | Cc1c(Cl)cccc1-n1ncc(C(=O)N2CCN(c3ncccn3)CC2)c1C1CCN(C(=O)OC(C)(C)C)CC1 | inconclusive [inhibitor, single point] | 
45 | CCCCn1nnnc1C(C1CC1)N1CCN(C/C=C/c2ccccc2)CC1 (configuration not stated) | active: 16.4 µM | 
46 | CCCCn1c(N)c(N(CC(C)C)C(=O)COc2cc(C)ccc2Cl)c(=O)[nH]c1=O | inactive | 
47 | O=C(CN1CCN(CCOCCO)CC1)N1c2ccccc2Sc2ccc(Cl)cc21 | inconclusive [inhibitor, single point] | 
48 | Cc1cccc(C(=O)Nc2nnc(-c3cccnc3)o2)c1 | inconclusive [inhibitor, single point] | 

Row | Compound | Potency | activity change, negative = growth inhibition
49 | CCOc1ccc(S(=O)(=O)N(CC(=O)NCC2CCCO2)c2ccc(F)cc2)cc1 (configuration not stated) | inconclusive [inhibitor, partial curve] | 
50 | CC1(C)Cc2c(C#N)c(SCCO)nc(N3CCOCC3)c2CO1 | inactive | 
51 | Cc1ccc(NC(=O)C(Cc2ccccc2)NS(=O)(=O)c2ccc3c(c2)c(=O)n(C)c(=O)n3C)c(C)c1 (configuration not stated) | inconclusive [inhibitor, single point] | 
52 | Cc1cc(F)ccc1NC(=O)c1ccc(NS(=O)(=O)c2cccs2)cc1 | inconclusive [inhibitor, single point] | 
53 | O=c1c(O)c(-c2cc(O)c(O)c(O)c2)oc2cc(O)cc(O)c12 | active: 18.4 µM | 
54 | CCN(CC)CCCNc1cc(C(F)(F)F)c(C#N)c2nc3ccccc3n12 | inconclusive [inhibitor, partial curve] | 
55 | COc1cccc(CNc2nc3cc(-c4cccc(C(=O)NCCO)c4)sc3c(=O)n2C)c1 | inconclusive [inhibitor, single point] | 
56 | CCC(C(=O)Nc1cc(F)ccc1F)n1nc(C)c2c(C)n(-c3ccc(C)cc3)nc2c1=O (configuration not stated) | active: 16.4 µM | 
57 | O=C1NC(Cc2ccccc2)C(=O)Nc2ccc(Br)cc21 (configuration not stated) | inconclusive [inhibitor, single point] | 
58 | COc1ccccc1-c1sc2cc3c(cc2c1C#CC1(O)CCCCC1)OCO3 | inconclusive [inhibitor, single point] | 
59 | C/C(=N\NC(=S)NCc1ccccc1)c1ccc(Cl)cc1 | active: 18.4 µM | 
60 | CCOC(=O)C1=C(O)/C(=C/c2cn(CC(=O)NCC3CCCO3)c3ccccc23)SC1=Nc1ccc(C)cc1 (configuration not stated) |  | inconclusive: -25.5% [inhibitor]
61 | CCOC(=O)c1ccc(NC(=O)CSC(=S)N2CCOCC2)cc1 | inconclusive [inhibitor, single point] | 
62 | COCCCn1c(-c2ccc(Cl)cc2)n[nH]c1=S | inactive | 
63 | COc1ccc(CCC(=O)NC2CC(=O)N(c3ccc(OC)cc3)C2)cc1 (configuration not stated) | inactive | 
64 | CC(C)Oc1ccc(S(=O)(=O)N2CCOCC2)cc1NC(=O)Cc1ccsc1 | inconclusive [inhibitor, single point] | 
65 | O=C(Oc1ccc(/C=N/NC(=O)c2ccccn2)cc1)c1cccc(F)c1 | inactive | 
66 | CSc1nc2ccc(NC(=O)C3CC(=O)N(Cc4ccccc4)C3)cc2s1 (configuration not stated) | inconclusive [inhibitor, single point] | 
67 | Cn1ccs/c1=N\C(=O)Nc1cccc(Cl)c1 | inactive | 
68 | CCc1ccccc1NC(=O)c1noc2c1CC(C(C)(C)C)CC2 (configuration not stated) | inconclusive [inhibitor, single point] | 
69 | O=[N+]([O-])c1cccc(C=NN=C2c3ccccc3-c3ccccc32)c1 | inactive | 
70 | Cc1cccc(NC(=O)C(=O)NCCc2csc(-c3ccc(F)cc3)n2)c1C | inconclusive [inhibitor, single point] | 
71 | Cn1ccsc1=NC(=O)c1cccc(OC(F)F)c1 | inconclusive [inhibitor, single point] | 
72 | COc1ccccc1NC(=S)NC(=O)c1ccc(Cn2cc(Br)cn2)cc1 | inconclusive [inhibitor, partial curve] | 

Source: PubChem BioAssay AID686978 (National Center for Advancing Translational Sciences (NCATS), 2013)
